# Experimental data published in the supplement of paper PMC8728848.
# This is one part of the list.
# B1: Tectonin 2 (Laccaria bicolor) (protein)
# chain: MPWKGISGSLSRISAGSVTNVWGVNAANNIYRYTGDDAKPWVQIPGALTDIGAAADGTVWGVNAAGNIYRYVWDSNHWTQIKGALKRISAGSRTNVWGVNAGGAIYRYTGDDANPWVQIPGVLSDIGAGADGTVWGVNAAGEIYRYTGDQGDPNHWVKIPGALSAISAGIKTNVWGVNSANNIYTSTGDDKNPWLGIGGSLVDIGAGTDGVVWGVNAGGGIYRWIRD
# What was measured:
# Assay in all cases: glycan array binding signal (z-score within array); higher = stronger binding
# Details in all cases: glycan notation: IUPAC condensed, linker removed
# [1] = biological target: Gal(b1-4)GlcNAc(b1-6)[Gal(b1-3)]GalNAc
# Outline: (§1)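 The binding signal is a Z-score computed within each array and averaged over linkers. Arrays of the same protein sequence at different concentrations or buffers were also averaged together. Data originate from 3228 arrays in the Consortium for Functional Glycomics database, kept only where the protein sequence was available.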
# [2] = biological target: Gal(b1-6)Gal
# Outline: as §1
# [3] = biological target: Gal3S(b1-3)GalNAc
# Outline: as §1
# [4] = biological target: Gal3S(b1-3)GlcNAc
# Outline: as §1
# [5] = biological target: Gal3S(b1-3)[Fuc(a1-4)]GlcNAc
# Outline: as §1
# [6] = biological target: Gal3S(b1-4)Glc
# Outline: as §1
# [7] = biological target: Gal3S(b1-4)Glc6S
# Outline: as §1
# [8] = biological target: Gal3S(b1-4)GlcNAc
# Outline: as §1
# [9] = biological target: Gal3S(b1-4)GlcNAc6S
# Outline: as §1
# [10] = biological target: Gal3S(b1-4)[Fuc(a1-3)]Glc
# Outline: as §1
# [11] = biological target: Gal3S(b1-4)[Fuc(a1-3)]Glc6S
# Outline: as §1
# [12] = biological target: Gal3S4S(b1-4)GlcNAc
# Outline: as §1
# [13] = biological target: Gal3S6S(b1-4)GlcNAc
# Outline: as §1
# [14] = biological target: Gal3S6S(b1-4)GlcNAc6S
# Outline: as §1
# [15] = biological target: Gal4S(b1-4)GlcNAc
# Outline: as §1
# [16] = biological target: Gal4S6S(b1-4)GlcNAc
# Outline: as §1
# [17] = biological target: Gal6S(b1-3)GlcNAc
# Outline: as §1
# [18] = biological target: Gal6S(b1-3)GlcNAc6S
# Outline: as §1
# [19] = biological target: Gal6S(b1-4)Glc
# Outline: as §1
# [20] = biological target: Gal6S(b1-4)Glc6S
# Outline: as §1
# [21] = biological target: Gal6S(b1-4)GlcNAc
# Outline: as §1
# [22] = biological target: Gal6S(b1-4)GlcNAc6S
# Outline: as §1
# [23] = biological target: GalNAc(a1-3)Gal
# Outline: as §1
# [24] = biological target: GalNAc(a1-3)GalNAc
# Outline: as §1
# [25] = biological target: GalNAc(a1-3)GalNAc(a1-3)Gal(a1-4)Gal(b1-4)GlcNAc
# Outline: as §1
# [26] = biological target: GalNAc(a1-3)GalNAc(b1-3)Gal(a1-4)Gal(b1-4)Glc
# Outline: as §1
# [27] = biological target: GalNAc(b1-3)Gal
# Outline: as §1
# [28] = biological target: GalNAc(b1-3)Gal(a1-4)Gal(b1-4)GlcNAc
# Outline: as §1
# [29] = biological target: GalNAc(b1-3)Gal(a1-4)Gal(b1-4)GlcNAc(b1-3)Gal(b1-4)Glc
# Outline: as §1
# [30] = biological target: GalNAc(b1-3)Gal(a1-6)Gal(b1-4)Glc
# Outline: as §1
# [31] = biological target: GalNAc(b1-3)GalNAc
# Outline: as §1
# [32] = biological target: GalNAc(b1-4)GlcNAc
# Outline: as §1
# [33] = biological target: GalNAc(b1-4)GlcNAc(b1-2)Man(a1-3)[GalNAc(b1-4)GlcNAc(b1-2)Man(a1-6)]Man(b1-4)GlcNAc(b1-4)GlcNAc
# Outline: as §1
# [34] = biological target: GalNAc(b1-6)GalNAc
# Outline: as §1
# [35] = biological target: Glc(a1-4)Glc
# Outline: as §1
# [36] = biological target: Glc(a1-6)Glc(a1-6)Glc
# Outline: as §1
# [37] = biological target: Glc(b1-4)Glc
# Outline: as §1
# [38] = biological target: Glc(b1-6)Glc
# Outline: as §1
# [39] = biological target: GlcA(b1-3)Gal
# Outline: as §1
# [40] = biological target: GlcA(b1-3)GlcNAc
# Outline: as §1
# [41] = biological target: GlcA(b1-6)Gal
# Outline: as §1
# [42] = biological target: GlcNAc(a1-3)Gal(b1-4)GlcNAc
# Outline: as §1
# [43] = biological target: GlcNAc(a1-4)Gal(b1-3)GlcNAc
# Outline: as §1
# [44] = biological target: GlcNAc(a1-4)Gal(b1-4)GalNAc
# Outline: as §1
# [45] = biological target: GlcNAc(a1-4)Gal(b1-4)GlcNAc
# Outline: as §1
binder,measurement,setting,value
B1,glycan array binding signal (z-score),[1],-0.206
same,glycan array binding signal (z-score),[2],-0.425
same,glycan array binding signal (z-score),[3],-0.126
same,glycan array binding signal (z-score),[4],-0.076
same,glycan array binding signal (z-score),[5],0.106
same,glycan array binding signal (z-score),[6],0.03
same,glycan array binding signal (z-score),[7],0.155
same,glycan array binding signal (z-score),[8],0.181
same,glycan array binding signal (z-score),[9],0.565
same,glycan array binding signal (z-score),[10],-0.079
same,glycan array binding signal (z-score),[11],1.05
same,glycan array binding signal (z-score),[12],0.398
same,glycan array binding signal (z-score),[13],0.741
same,glycan array binding signal (z-score),[14],1.73
same,glycan array binding signal (z-score),[15],0.092
same,glycan array binding signal (z-score),[16],1.36
same,glycan array binding signal (z-score),[17],0.325
same,glycan array binding signal (z-score),[18],0.188
same,glycan array binding signal (z-score),[19],-0.227
same,glycan array binding signal (z-score),[20],0.054
same,glycan array binding signal (z-score),[21],0.484
same,glycan array binding signal (z-score),[22],2.71
same,glycan array binding signal (z-score),[23],-0.17
same,glycan array binding signal (z-score),[24],-0.155
same,glycan array binding signal (z-score),[25],-0.361
same,glycan array binding signal (z-score),[26],-0.447
same,glycan array binding signal (z-score),[27],-0.264
same,glycan array binding signal (z-score),[28],-0.448
same,glycan array binding signal (z-score),[29],-0.218
same,glycan array binding signal (z-score),[30],-0.462
same,glycan array binding signal (z-score),[31],-0.168
same,glycan array binding signal (z-score),[32],-0.434
same,glycan array binding signal (z-score),[33],-0.002
same,glycan array binding signal (z-score),[34],-0.588
same,glycan array binding signal (z-score),[35],-0.35
same,glycan array binding signal (z-score),[36],-0.136
same,glycan array binding signal (z-score),[37],-0.277
same,glycan array binding signal (z-score),[38],-0.563
same,glycan array binding signal (z-score),[39],-0.286
same,glycan array binding signal (z-score),[40],4.49
same,glycan array binding signal (z-score),[41],-0.284
same,glycan array binding signal (z-score),[42],-0.184
same,glycan array binding signal (z-score),[43],-0.298
same,glycan array binding signal (z-score),[44],-0.044
same,glycan array binding signal (z-score),[45],-0.315
